Reference: PubChem BioAssay AID1814 (Broad Institute, 2009)
Out of some 300,000 compounds screened, about 22,000 (7.3%) were called active. Inconclusive results, whose numbers are uncertain, are shown with a selection of clear calls. No stated cut-off is given here; in the data, active means activity score below about -60%; inconclusive means mostly about -28% to -61%; inactive means positive scores.

Test: Activators via SNCA 5'UTR binding, MLPCN (AID 1814)
Settings: alpha-synuclein 5'UTR reporter, activators screen; active compounds read low; tested at 7.5 µM

Row | SMILES | activity score
1 | CCO[C@H]1OC(C(=O)NCc2nc3ccccc3[nH]2)=C[C@@H](C2CC2)[C@@H]1CCCO | inactive: 79.9%
2 | Cc1c(C(=O)N/N=C/c2c(O)ccc3ccccc23)nnn1-c1nonc1N | inactive: 63.4%
3 | NC(=O)c1ccsc1NC(=O)COc1ccccc1 | active: -136%
4 | N#CC1=C(N)SC(N)=C(C#N)C1CCc1ccccc1 | inconclusive: -45.7%
5 | CCn1c(CNC(=O)c2ccccc2F)cc2cc(C)ccc21 | inconclusive: -60.8%
6 | Cc1cc2cc(CN(Cc3ccco3)S(=O)(=O)c3c(C)ccc4nsnc34)c(=O)[nH]c2cc1C | inactive: 88.9%
7 | Cc1ccc([N+](=O)[O-])cc1NC(=S)NC(=O)c1ccco1 | inconclusive: -60.9%
8 | Clc1cccc(Cl)c1COn1nnc2ccccc21 | active: -149%
9 | COc1ccc(OC)c2sc(N(CCCN(C)C)C(=O)c3ccc(S(=O)(=O)N4CCc5ccccc5C4)cc3)nc12 | inactive: 100%
10 | CC(/C=N/NC(=O)C(O)c1ccccc1)=C\c1ccccc1 (stereo not given) | active: -81.1%
11 | O=C(/C=C/c1ccc(-c2ccccc2[N+](=O)[O-])o1)c1ccc(F)cc1 | inconclusive: -59.8%
12 | CCCc1nc2sc3c(c2c(=O)n1N)CCC3 | inconclusive: -27.4%
13 | Cc1c(OCc2ccccc2)cccc1OCc1ccccc1 | active: -70.6%
14 | NC(=O)c1cc2c3ccccc3ccn2c1-c1ccccc1 | inactive: 113%
15 | O=C(/C(=C/O)N=Nc1ccccc1Cl)c1ccccc1 | inconclusive: -40.4%
16 | COc1cccc2cc(C(=O)NC(C)C3CCCO3)c(=O)oc12 (stereo not given) | inconclusive: -50.4%
17 | COc1ccc2cc(C(=O)NCc3ccccc3)c(=Nc3ccc(C(=O)O)cc3)oc2c1 | inconclusive: -60%
18 | Cc1cc(C)cc(NC2=C(N)C(=O)c3ccccc3C2=O)c1 | inconclusive: -53.3%
19 | CC1(C)Cc2nc3sc(C(N)=O)c(N)c3cc2CO1 | inconclusive: -49.2%
20 | CCN1CCN(Cc2ccc(NC(=O)c3cc(NC(=O)C(=O)c4c[nH]c5ccccc45)cc(OC)c3)cc2C(F)(F)F)CC1 | inactive: 117%
21 | CS(=O)(=O)N1N=C(c2ccccc2)CC1c1ccc2nccnc2c1 (stereo not given) | active: -77.3%
22 | Oc1ccccc1N1CCN(C(=S)NCCc2ccccc2)CC1 | inconclusive: -35.3%
23 | Cc1nn(-c2ccccc2)c(C)c1NC(=O)CCl | active: -101%
24 | O=C(c1ccc(Br)o1)N1CCc2ccccc21 | active: -154%
25 | N#CC1=C(S)N(c2ccccc2)C(c2ccc(-c3ccccc3Cl)o2)NC1=O (stereo not given) | inconclusive: -59.2%
